Laboratory results reported in the supplement of paper PMC3334620.
The full ranking holds about 33,000 sequences; the median of “E-score (-0.5 to 0.5)” is about -0.036, and the highest 2% start at about 0.37. The list shows a part of the results.

target: T1, Yer064c (UniProt P40041); assay: PBM E-score (8-mer binding enrichment) (E-score (-0.5 to 0.5)); higher = stronger / more preferred TF binding; most listed sequences are background and not binding sites; details: protein concentration: 200 nM; construct: GST-full length
T1 sequence: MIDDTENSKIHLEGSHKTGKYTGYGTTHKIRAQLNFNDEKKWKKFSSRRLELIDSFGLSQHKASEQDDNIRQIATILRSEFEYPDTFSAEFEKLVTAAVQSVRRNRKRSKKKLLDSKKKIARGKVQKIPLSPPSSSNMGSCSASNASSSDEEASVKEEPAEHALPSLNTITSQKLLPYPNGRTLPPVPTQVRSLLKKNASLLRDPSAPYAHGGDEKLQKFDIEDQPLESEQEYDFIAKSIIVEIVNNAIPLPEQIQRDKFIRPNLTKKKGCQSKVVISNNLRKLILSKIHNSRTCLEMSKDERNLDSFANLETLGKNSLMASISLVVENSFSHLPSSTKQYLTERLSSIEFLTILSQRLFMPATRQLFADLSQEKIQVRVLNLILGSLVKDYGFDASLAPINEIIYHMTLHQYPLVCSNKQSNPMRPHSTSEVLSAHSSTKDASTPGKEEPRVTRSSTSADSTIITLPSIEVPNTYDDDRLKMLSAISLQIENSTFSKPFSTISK
How it was run: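 The E-score, a modified Wilcoxon-Mann-Whitney statistic, was computed by the Universal PBM Analysis Suite for every ungapped eight-base word pooled with its reverse complement. Scans behind it were normalised with masliner after bound GST-tagged yeast transcription factors were detected with fluorescent anti-GST. The proteins, at about 100-200 nM, had been applied to universal all-10-mer Agilent arrays made double-stranded by primer extension.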

Sequence	PBM E-score
CACCAGCA	-0.0231
AAACGGCC	-0.185
CCTGGAAA	-0.189
CGGGTTGA	0.0912
TACGCGTA	0.042
GTGGAGAA	-0.0503
CCTTCGCA	-0.293
GCTACCTA	-0.161
GTTCCCTA	-0.143
ACTACGAA	0.12
GTGATGCA	-0.104
GGGGGAGA	-0.265
ACACCTTC	-0.115
GCTAGGCA	-0.0458
ATTCGACA	-0.141
AGCCGCGG	-0.219
AGGACGGC	-0.0933
CGGGTTCC	-0.245
AACTGAAC	-0.119
AACCCTTA	-0.0338
TACAGCAA	0.0441
AGGAAGGA	-0.0925
CATAAAAC	0.0389
CCAGCTGA	0.146
ATATGACA	-0.00572

Sequence	PBM E-score
CATGGCGA	0.0484
ATGTTGGG	-0.217
CTACCACA	0.149
CCACTCAA	0.0849
CCGCCTGC	0.00718
GTCGCCAA	0.161
GAATTTAA	0.0168
TCACAACA	0.204
CACCAACA	0.0386
AGGTACAG	-0.104
AGTGGCTC	0.0696
CATCTGTA	-0.0129
AAGAACTA	0.0907
TAGAAACA	-0.0213
GATATTGA	0.0449
TCGAGTCA	0.471
CGTCTGGC	-0.0308
CTACGCAG	0.0104
GCTGTAAA	-0.0319
ATCGCAGC	0.0831
CCGGCAGC	-0.094
AGGCTCCG	-0.185
AAACGGGG	-0.128
ATACACAA	0.0358
GACCAGAC	-0.143

Sequence	PBM E-score
ACGCGGAG	-0.145
CGGTCCCC	-0.287
AGGAGATA	-0.194
GGGCCGTA	-0.231
CGTCTTAG	-0.188
ATAGCAGG	-0.169
CGCTGTAG	-0.0731
AACTCAGG	0.0445
CGCCTTGC	-0.0684
AGGATTTG	-0.0258
TGACGTAA	0.00826
AAATTAGG	-0.0277
AGGACTAC	0.341
ACCCAGAA	0.163
AATAATTC	0.0244
ATCCCTGC	-0.114
ATAATGAA	0.185
GCCTCTGA	-0.0264
AAGAGTCC	0.303
ATTTAGGA	0.151
CAGGCACC	-0.0975
CTCGTCAG	0.00393
ACATGCCA	-0.0159
CCGCTCTC	-0.159
CCGTAACG	-0.238

Sequence	PBM E-score
TCAGGAGA	0.159
AACGTGTC	-0.16
GGAGAGCC	-0.195
ACGGTATA	-0.255
GAGGGAAC	-0.319
GAGGTAAA	0.122
GCTTACAC	-0.0577
ACGTTGGG	0.00438
ATCCTGCC	-0.159
CCGCTCAC	-0.1
GGAACAAC	0.0564
CCGTCTGA	-0.0271
CCGTTTGA	0.0399
ACTTAAGA	0.204
ACAATAGC	0.0973
GTGCGGCA	-0.143
AGGATGTC	0.00214
GAAACATA	0.0114
CTGGCGGA	0.0452
CGATGACA	-0.0688
CTAGCCCA	-0.0863
ATCAGCTA	0.0333
AGTTCAGA	0.0534
CGCTCACA	-0.0179
AGGACCTG	-0.224

Sequence	PBM E-score
ATAGACGA	0.0716
CCATGAAG	0.0179
GCGCACTA	-0.326
GCGCGCCC	-0.0703
ACTATTGC	0.151
CTACAACA	0.0623
AAGTGAAA	-0.00667
CTTAATCA	0.45
ACGACATA	-0.164
AACGTTGC	-0.124
AGCAGCGA	-0.0693
GCAAACCC	-0.249
AAACGGGT	-0.154
GTAAGGGA	-0.0548
CACCGCCC	-0.0824
CTTGCTGA	0.0233
CCTATAGG	-0.338
ACACGGAT	0.075
CGAGTGTA	-0.019
CGCGAGTC	0.405
CTAGGACA	0.0648
AAGCTTCA	-0.204
ACAATACT	0.178
TGCATAAA	0.0405
AAGACTCT	0.425

Sequence	PBM E-score
AGGACCTC	-0.293
GGTTGTCA	-0.0479
ACGGGGTA	-0.003
AGTTCCGA	0.0577
ACTTCGTC	0.0588
GCATTTGA	0.159
CCGACTTC	-0.0761
GTTTCCCA	-0.00934
GATGCGAC	0.00152
CACGAAGC	-0.0806
ACTTGCCT	-0.0551
AAAATTCC	-0.197
CGCGGCAC	-0.325
GAACAGCA	-0.175
ACAGTCGT	0.198
GTGGCGAA	-0.171
GAAACGTA	-0.0136
CCGAGGAC	-0.0294
GCTCAACA	-0.0159
AAGCGACT	0.369
ATGACAAC	-0.0635
TACGGTGA	0.194
AGCGGGCC	-0.167
CGCCCTCC	-0.364
CTCTGCCC	-0.138

Sequence	PBM E-score
AAGGACTA	0.375
GCCAGGGC	-0.19
CGTTCACA	0.0136
CTCAGCAG	0.103
AAGGTTGA	0.242
CCGAACAA	-0.119
CACCAGGA	0.00778
AGGGGGAA	-0.34
AATCTAGT	0.215
ACTTCTTC	0.0781
AACTACAG	-0.166
GAGCAAGC	-0.0798
TCAGAAAA	0.0134
AAGGTCAC	0.0502
CCTGCTGA	0.0146
CCCCTCTA	-0.246
CGTATTAC	-0.06
GAGTTTAA	0.148
GACCCTAA	-0.141
CGCTTGAC	0.0418
CTCTGAAC	0.0386
CGGATGAC	0.141
